# From PubChem BioAssay AID485364 (National Center for Advancing Translational Sciences (NCATS), 2010)
# Screen size: about 360,000 compounds; about 11,000 (3.1%) were called active. The shares of active, inactive and inconclusive entries below differ from those in the screen. The call rests on the fitted dose curve; in most records, active means well fitted inhibition curve with a large enough effect; inconclusive means small, poorly fitted or top-dose-only effect; inactive means no such curve, though single readings can be large or run the other way. Potencies of inconclusive entries are left out as doubtful fits.
# Target: Schistosoma mansoni thioredoxin glutathione reductase (TGR) (UniProt Q962Y6)
# Experiment: qHTS Assay for the Inhibitors of Schistosoma Mansoni Peroxiredoxins; further: nearly all actives have a fitted effect of over 60% in size
# Conditions: purified TGR, DTNB reduction, TNB absorbance 405 nm; series mostly up to 114 µM
# Description: Schistosomiasis is a major neglected tropical disease that currently affects over 200 million. It is caused by different species of flatworms, such as Schistosoma mansoni. Over the last century, drugs to treat the disease have evolved from potassium antimonyl tartrate, artemisinin, oxamniquine, to praziquantel, with praziquantel remaining the universally-used single drug of choice over the past three decades. However, transmission rates have changed little with praziquantel, and there is evidence for the development of drug resistant parasites. Because there is currently no suitable alternative therapy available, there is an urgent need to identify new targets and drugs for schistosomiasis treatment. Thioredoxin glutathione reductase (TGR), one uniquely positioned S. mansoni enzyme, has been identified as a major component of the worms' distinct and compressed antioxidant "firewall". TGR is a multifunctional enzyme that catalyzes the interconversion between reduced and oxidized forms of both glutathione (GSH) and thioredoxins, thus making it an attractive new antiparasitic target. Recently, a quantitative high-throughput screen of the NIH Molecular Libraries Small Molecule Repository (MLSMR, ~71K at the time of the screen in 2007) was performed using an assay that targeted both TGR and peroxiredoxin2 (Prx2, an H2O2-reducing enzymatic component of the S. mansoni redox "firewall") by following the decrease of NADPH fluorescence. […] Additional mechanistic link between exogenous NO donation and parasitic injury for the oxadiazole-2-oxide class of compounds was also expanded and better defined. Although the screen addressed both TGR and Prx2, the assay required post-screen target deconvolution for further characterization of the actives. In addition, the fluorescence assay was also subject to fluorescence interference from compound library members. We have developed a 1536-well-based kinetic HTS assay to address TGR alone. The assay followed the reduction of 5, 5'-dithiobis (2-nitrobenzoic acid) (DTNB) (Ellman's reagent) by NADPH and measured the increase in absorbance at 412 nm of the reaction product, TNB. […] This assay format can be used to screen the current MLSMR collection (with >300K compounds available) to find novel TGR inhibitors. Furoxan is a good choice to serve as a positive control in the primary HTS assay.
# Three microliters of reagents (100 uM NADPH and 20 nM TGR or 100 uM NADPH as no-enzyme control) were dispensed into 1,536-well black clear-bottomed plates. Compounds (23 nL) were transferred via Kalypsys pin tool equipped with 1536-pin array (10 nL slotted pins, V&P Scientific, San Diego, CA). The plates were then be incubated for 15 min at room temperature, and 1 uL aliquot of 500 uM NADPH were added, immediately followed by a 1 uL aliquot of 15 mM DTNB to start the reaction. The plate was transferred to a ViewLux high-throughput CCD imager (Perkin-Elmer, Wellesley, MA) where kinetic measurements of the TNB absorbance were acquired using a 405 excitation filter. Throughout the screen, reagent bottles and all liquid lines were made light-tight to minimize reagent degradation. All screening operations were performed on a fully integrated robotic system (Kalypsys, San Diego, CA) containing one RX-130 and two RX-90 anthropomorphic robotic arms (Staubli, Duncan, SC). Library plates were screened starting from the lowest and proceeding to the highest concentration, and a "double-dipping" step of the highest concentration was required to access higher concentrations of compounds. Vehicle-only plates, with DMSO being pin-transferred to the entire column 5-48 compound area, were inserted uniformly at the beginning and the end of each library in order to monitor for and record any shifts in the background, which can be affected by reagent dispensers or loss in enzyme activity overtime. […]
# Potency means the concentration at half of the fitted maximal effect; tags describe the fitted curve by direction and shape.
row,Structure (SMILES),Potency
1,O=C(Cn1nc(Cl)nc1Cl)c1ccc2c(c1)OCCO2,active: 20 µM
2,CCc1ccc(NC(=O)c2sc3nc(C)c(Cl)c(C)c3c2NC(=O)c2ccccc2)cc1,inactive
3,O=C(Oc1coc(CSc2nnc(NC(=O)C3CC3)s2)cc1=O)c1c(F)cccc1F,"inconclusive [inhibitor, full curve]"
4,COc1ccccc1NC(=O)COC(=O)C1CC1,inactive
5,O=C(NC(=S)NCC1COc2ccccc2O1)c1ccccc1 (centres undefined),"inconclusive [inhibitor, partial curve]"
6,N#Cc1c(SCc2c(Cl)cccc2Cl)nc(N)[nH]c1=S,inactive
7,CCOP(=O)(OCC)/C(=N/OC(=O)c1ccc(OC)cc1)C(N)=O,"inconclusive [inhibitor, partial curve]"
8,COc1ccc(-c2cc(C(=O)Nc3cccc(S(=O)(=O)NCc4ccco4)c3)c3ccccc3n2)cc1OC,"inconclusive [inhibitor, partial curve]"
9,COc1cccc(CNC(=O)CCC2CCCN(C(=O)c3ccccc3N(C)C)C2)c1 (centres undefined),active: 79.4 µM
10,CC(C)C(=O)NC(=S)Nc1ccc(S(=O)(=O)N(C)C)cc1,"inconclusive [inhibitor, partial curve]"
11,COc1ccccc1C(c1nnnn1C1CCCC1)N1CCN2CCCC2C1 (centres undefined),"inconclusive [inhibitor, partial curve]"
12,Oc1cc(Cc2ccccc2)cnc1CN1CCCCC1,"inconclusive [inhibitor, partial curve]"
13,Nc1nc(CSc2nc3ccccc3[nH]2)cs1,"inconclusive [inhibitor, single point]"
14,Cc1ccc(Nc2ncnc3c2nc2n3CCCC2)c(Br)c1,inactive
15,O=C(Nc1ccccc1N1CCOCC1)c1cc(-c2ccco2)nc2ccccc12,"inconclusive [inhibitor, partial curve]"
16,NC(=O)C1CCN(C(c2ccccc2Cl)c2nnnn2Cc2ccc3c(c2)OCO3)CC1 (centres undefined),"inconclusive [inhibitor, partial curve, poor fit]"
17,CCc1cc(-c2n[nH]c(C)c2-c2nc3ccccc3n2C)c(O)c(CN2CCN(C)CC2)c1O,"inconclusive [inhibitor, partial curve]"
18,COc1ccc(-c2c[n+]3c(n2-c2c(C)n(C)n(-c4ccccc4)c2=O)CCCCC3)cc1,"inconclusive [inhibitor, single point]"
19,Cc1c(-n2cc(C(=O)c3cc(Br)ccc3O)cc(C#N)c2=O)c(=O)n(-c2ccccc2)n1C,"inconclusive [inhibitor, single point]"
20,CCOC(=O)c1cc(C(C)=O)c(=O)n(C)c1N,"inconclusive [inhibitor, full curve, poor fit]"
21,COC(=O)[C@]1(Cc2ccccc2)N[C@H](c2ccc(-c3ccc(F)cc3)cc2)[C@@H]2C(=O)N(C)C(=O)[C@@H]21,"inconclusive [inhibitor, partial curve]"
22,O=C(NCCCNC(=O)c1ccc(-c2cccc(Cl)c2)o1)c1cnccn1,"inconclusive [inhibitor, full curve]"
23,COC(=O)C1(C(=O)OC)NOC2C(=O)N(N(C)c3ncc(C(F)(F)F)cc3Cl)C(=O)C21 (centres undefined),inactive
24,O=C(NC1CC1)c1ccc(F)cc1Cl,inactive
25,C1CNCCOCCNCCN1,inactive

row,Structure (SMILES),Potency
1,Cc1ccc2cc(CNC(C)(C)C)c(=O)[nH]c2c1,inactive
2,Oc1ccccc1C1CC(c2cccs2)=NC(c2ccc(Cl)cc2)N1 (centres undefined),"inconclusive [inhibitor, partial curve]"
3,CC(C)OC(=O)CSc1nc(N)c(C#N)c(-c2ccco2)c1C#N,active: 39.8 µM
4,COc1ccc(CCOC(=O)c2cccc(NC(C)=O)c2)cc1,inactive
5,COc1ccc(OCc2cc(C(=O)NCCN3CCCC(O)C3)no2)c(Cl)c1 (centres undefined),"inconclusive [inhibitor, full curve, poor fit]"
6,CCCCn1c(-c2ccc([N+](=O)[O-])cc2)n[nH]c1=S,inactive
7,C=C(Cl)CSC(=S)N(CC)CC,"inconclusive [inhibitor, partial curve]"
8,CC(=C\C(=O)O)/C(=C/c1ccc(C)o1)C(=O)O,active: 31.6 µM
9,O=c1[nH]nc(CNc2ccc(O)cc2)c2ccccc12,active: 35.5 µM
10,O=C(CCl)Nc1nccs1,active: 3.16 µM
11,COc1ccc(Cl)cc1NC(=S)N1CCC(c2ccc(C)cc2)C1 (centres undefined),inactive
12,C#CCOCCOCCOCCNc1nc(N2CCN(C(=O)CCCCCCCCCCNC(=O)Cn3cc(CCCCCN)nn3)CC2)nc(N2CCN(C(=O)CCCCCCCCCCNC(=O)[C@H](CO)n3cc(CCCCCN)nn3)CC2)n1,active: 39.8 µM
13,CCn1c(SCC(=O)c2cc(C)n(CC3CCCO3)c2C)nc2ccccc21 (centres undefined),"inconclusive [inhibitor, partial curve]"
14,Cc1ccc2nsnc2c1NC(=S)NC(=O)c1ccco1,active: 44.7 µM
15,Cc1ccccc1-c1nc(CS(=O)(=O)CC(=O)NCc2ccccc2)c(C)o1,"inconclusive [inhibitor, partial curve]"
16,Clc1ccc(-c2nc(/C=N/N3CCOCC3)c3ccccn23)cc1,active: 44.7 µM
17,O=c1[nH]c2ccccc2cc1CN(CC1CCCO1)S(=O)(=O)c1ccc(Cl)cc1 (centres undefined),inactive
18,NC(=O)C1CCN(C2CC(=O)N(c3ccc(F)c(Cl)c3)C2=O)CC1 (centres undefined),active: 25.1 µM
19,Cc1cc(Br)c(NC(=O)CN2CCCC2)c(Br)c1,inactive
20,COc1cc2c(cc1O)C(Cc1ccc(O)cc1)[N+](C)([O-])CC2 (centres undefined),"inconclusive [inhibitor, partial curve]"
21,CSCCC(NS(=O)(=O)c1cccs1)C(=O)Nc1ccc(C)c(Cl)c1 (centres undefined),inactive
22,O=C(O)c1cccc(Nc2cc(Cl)c3nonc3c2[N+](=O)[O-])c1,active: 0.355 µM
23,CC(=O)/C(=C\N(C)C)Sc1ccc(Cl)cc1,"inconclusive [inhibitor, partial curve]"
24,CCOc1cccc(N2C(=O)CC(N3CCN(c4ccc(S(=O)(=O)CC)cc4)CC3)C2=O)c1 (centres undefined),"inconclusive [inhibitor, partial curve, poor fit]"
25,Cc1ccc(-n2c(C)cc(/C=C3\C(=O)NC(=O)N(C)C3=O)c2C)cc1C,"inconclusive [inhibitor, partial curve]"

row,Structure (SMILES),Potency
1,CCN1C(=O)C(CC(=O)N2CCN(C(c3ccccc3)c3ccccc3)CC2)N(CC)C1=O (centres undefined),"inconclusive [inhibitor, full curve]"
2,COc1ccc(Cn2ccc3nc(C)c(C(=O)N4CCN(c5ccccc5OC)CC4)cc3c2=O)cc1,inactive
3,O=[N+]([O-])c1ccc2c(c1)S(=O)c1ccccc1-2 (centres undefined),inactive
4,CSc1ccccc1NC(=S)NCc1ccc(Cl)cc1,"inconclusive [inhibitor, partial curve]"
5,CN(Cc1cnccn1)C(=O)CC1C(=O)NCCN1CC(c1ccccc1)c1ccccc1 (centres undefined),active: 44.7 µM
6,Cc1cc(C(=O)CN2CCN(CC(=O)Nc3ccc(F)cc3)CC2)c(C)n1C1CC1,"inconclusive [inhibitor, single point]"
7,COc1ccc(C(=O)Oc2cc(/C=N/NC(N)=S)ccc2OC)cc1,inactive
8,Cn1cc(C(=O)N2CCN(c3ccccc3)CC2)c(=O)c2cc(S(=O)(=O)N3CCOCC3)ccc21,inactive
9,CCc1ccc(Nc2sc(C(=O)c3ccccc3)c(N)c2S(C)(=O)=O)cc1,inactive
10,Cc1cc(N2CCCCC2)n2nc(C)c(-c3ccccc3)c2n1,inactive
11,CCN(CC(=O)Nc1cccc(OC)c1)C(=O)c1ccco1,"inconclusive [inhibitor, partial curve]"
12,CC1CCCCN1C(=O)CSc1nnc(-c2ccco2)n1CC1CCCO1 (centres undefined),"inconclusive [inhibitor, single point]"
13,Cc1ccc2occ(C(c3nnnn3Cc3ccccc3)N3CCOCC3)c(=O)c2c1 (centres undefined),"inconclusive [inhibitor, partial curve]"
14,CC(=O)c1ccc(-c2ccc(C(=O)N3CCCc4ccccc43)o2)cc1,"inconclusive [inhibitor, partial curve]"
15,CCC(=O)N1CCN(c2ccccc2NC(=O)c2ccc([N+](=O)[O-])o2)CC1,"inconclusive [inhibitor, partial curve]"
16,COC(=O)C1=C(C)N=c2s/c(=C/c3ccoc3)c(=O)n2C1c1ccccc1 (centres undefined),"inconclusive [inhibitor, full curve]"
17,O=C(CNc1cccc2ccccc12)c1ccc([N+](=O)[O-])cc1,"inconclusive [inhibitor, partial curve]"
18,COC(=O)c1cc(C)sc1NC(=O)CSc1ncccn1,inactive
19,Cc1c(C(=O)OCC2CCCO2)[nH]c2c1C(=O)CC(c1ccco1)C2 (centres undefined),"inconclusive [inhibitor, partial curve]"
20,CCS(=O)(=O)c1ccc(OC)c(N=Nc2ccc(O)c3ncccc23)c1,inactive
21,COC(=O)Nc1cc(C(=O)c2ccc(Cl)cc2Cl)c[nH]1,"inconclusive [inhibitor, partial curve]"
22,O=C(c1ccc2c(c1)CCN2S(=O)(=O)c1ccc(Cl)cc1)N1CCN(c2ccccc2)CC1,"inconclusive [inhibitor, partial curve]"
23,CCOC(=O)C(C(=O)OCC)C(C#N)c1ccccc1 (centres undefined),inactive
24,Cc1c(NC(=S)NC(=O)C(C)(C)C)cccc1[N+](=O)[O-],"inconclusive [inhibitor, partial curve]"
